# Data taken from the BET-seq Pho4 binding data (Le et al. 2018).
# Some of the results follow. These are noisy estimates, calculated here from bound and input reads.
# Molecular target: T1, Pho4 (S. cerevisiae) (UniProt P07270)
# T1 sequence: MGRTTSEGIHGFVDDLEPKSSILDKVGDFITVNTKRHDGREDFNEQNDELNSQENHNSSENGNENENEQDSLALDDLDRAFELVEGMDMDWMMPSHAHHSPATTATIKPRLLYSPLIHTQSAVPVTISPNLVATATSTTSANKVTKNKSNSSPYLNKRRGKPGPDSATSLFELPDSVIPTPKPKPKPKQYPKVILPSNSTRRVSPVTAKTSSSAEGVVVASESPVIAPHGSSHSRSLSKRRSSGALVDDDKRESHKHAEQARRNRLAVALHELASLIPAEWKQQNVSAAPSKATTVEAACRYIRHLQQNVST
# Assay: relative binding free energy (BET-seq); higher = weaker binding
# Details: reference: library average
row,Sequence,relative binding free energy
1,GTTGCCACGTGGCAGG,-0.1 kcal/mol
2,TGATTCACGTGGATCG,0.37 kcal/mol
3,AGGGGCACGTGTCAAG,-0.28 kcal/mol
4,GTCGTCACGTGTGATA,0.21 kcal/mol
5,CAGGGCACGTGCTGTT,-0.2 kcal/mol
6,CGTGTCACGTGATTAG,0.25 kcal/mol
7,GCTCTCACGTGGGTGT,0.18 kcal/mol
8,TGTTGCACGTGGCGTC,-0.01 kcal/mol
9,GTTCTCACGTGGAGTT,0.33 kcal/mol
10,CGTGACACGTGAGTTG,0.18 kcal/mol
11,CAGTGCACGTGTTAGT,0.03 kcal/mol
12,GGGTGCACGTGGAGAC,-0.06 kcal/mol
13,GGGGTCACGTGGACGA,0.16 kcal/mol
14,AGTGGCACGTGGCACG,-0.31 kcal/mol
15,GTGATCACGTGGGAAG,0.02 kcal/mol
16,GCGGTCACGTGGTTGT,0.09 kcal/mol
17,TATGTCACGTGTTTTT,0.18 kcal/mol
18,ATAGTCACGTGGAATA,0.18 kcal/mol
19,GTTGACACGTGTGGCG,0.02 kcal/mol
20,GTTTCCACGTGATTTG,0.23 kcal/mol
21,AATGGCACGTGAGTGG,0.09 kcal/mol

row,Sequence,relative binding free energy
1,GAAATCACGTGGAGTG,0.34 kcal/mol
2,TTGAACACGTGTGATA,0.15 kcal/mol
3,GGGAGCACGTGGGGAG,-0.19 kcal/mol
4,AGCGTCACGTGCAGGT,-0.01 kcal/mol
5,CGTATCACGTGTCGTG,0.13 kcal/mol
6,GGGTACACGTGGCAAT,0.06 kcal/mol
7,TATTACACGTGAATTT,0.33 kcal/mol
8,GAGTTCACGTGAGCGT,0.26 kcal/mol
9,ATTGACACGTGGTACG,-0.1 kcal/mol
10,AGGGGCACGTGAAAGT,0.16 kcal/mol
11,AGTGTCACGTGATGGT,0.12 kcal/mol
12,GTCACCACGTGGTGGT,0.03 kcal/mol
13,TTGTGCACGTGATAAT,0.08 kcal/mol
14,AGTGACACGTGTTGTA,-0.06 kcal/mol
15,GGGTTCACGTGCTGTC,0.33 kcal/mol
16,TTAATCACGTGTGAAT,0.28 kcal/mol
17,TGTAGCACGTGTAGTC,0.02 kcal/mol
18,ATAGTCACGTGGGAGG,0.01 kcal/mol
19,TGTATCACGTGCACGG,0.08 kcal/mol
20,CGGTGCACGTGAACGG,0.2 kcal/mol
21,AAAGGCACGTGGTCGG,-0.23 kcal/mol

row,Sequence,relative binding free energy
1,GAGTTCACGTGATGGG,0.54 kcal/mol
2,TGTGTCACGTGCGTGC,-0.07 kcal/mol
3,GTAGTCACGTGTATAT,0.21 kcal/mol
4,GAGTTCACGTGGATGG,0.35 kcal/mol
5,CGTGACACGTGGAGGG,-0.06 kcal/mol
6,TGATGCACGTGCAGGT,-0.09 kcal/mol
7,TGCGTCACGTGCTGGG,0.08 kcal/mol
8,TGTATCACGTGTTCAA,0.08 kcal/mol
9,CGATGCACGTGGGTTG,-0.26 kcal/mol
10,CGGAGCACGTGTCTGG,0.05 kcal/mol
11,TAGAACACGTGTGGCG,0.06 kcal/mol
12,TTGAGCACGTGGCTAA,-0.12 kcal/mol
13,ATAGTCACGTGTTTAT,0.15 kcal/mol
14,GGGCTCACGTGGGCAG,-0.02 kcal/mol
15,ATGAGCACGTGAGAAG,0.23 kcal/mol
16,GACTTCACGTGGCTTG,0.53 kcal/mol
17,CTGAACACGTGAGGGG,0.22 kcal/mol
18,AATGACACGTGAGGAT,0.25 kcal/mol
19,TGTTGCACGTGTAGCA,0.07 kcal/mol
20,GTCGTCACGTGTGCAG,0.24 kcal/mol
21,AGTGACACGTGAGGTT,0.24 kcal/mol
